In PubChem BioAssay AID662 (National Center for Advancing Translational Sciences (NCATS), 2007):
Hit rate of the full screen: of about 71,000 compounds, about 1,800 (2.5%) were called active. The shares of active, inactive and inconclusive entries below differ from those in the screen. Calls follow the shape of the dose curve; as a rule, active = well fitted activation curve with a large enough effect in the signal ratio, with a control signal flat (not every such curve was filed as active); inconclusive = small, poorly fitted or top-dose-only effect, or effect the other way, or a change in a side signal; inactive = flat fitted curve, though single readings scatter; the % refers to the signal ratio. Potencies of inconclusive entries are doubtful fits and often do not repeat.
Potency is read from the fitted curve at half-maximal effect; tags tell the direction and shape of the fitted curve.

Assay: Cell signaling CRE-BLA (Fsk stim); as to activity change, negative = inhibition: % of control where 0% means no effect
Conditions: CHO CRE-bla reporter (cAMP response element driving beta-lactamase), forskolin EC10, beta-lactamase ratio; activity change, negative = inhibition: at 38.2 µM (top of the series) unless noted
How it was run: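 qHTS titration format; CRE-bla CHO reporter; stimulus EC10 NKH 477, a water-soluble forskolin. Read: CCF4 460/530 nm ratio. Potency expressed as AC50 for activators or inhibitors.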
With Cc1cc(-c2nnco2)c(C)n1-c1ccccc1 the Potency was inconclusive: 10 µM [rising, partial curve].
With CCOC(=O)N1CCC(NC(=O)CSCc2cnn(-c3ccccc3)c2-n2cccc2)CC1 the activity change, negative = inhibition was inconclusive: 4.69%.
With COC(=O)c1ccccc1NC(=O)c1ccc2c(c1)OCCO2 the Potency was inconclusive: 3.16 µM [rising, partial curve].
In the case of Cc1ccc(C(=O)C2=C(O)C(=O)N(CCCn3ccnc3)C2c2ccc(OC(C)C)cc2)o1 (stereo not given), the Potency is reported as inconclusive: 15.8 µM [rising, single point].
For Cn1c(=O)c2[nH]cnc2n(C)c1=O, the Potency was inconclusive: 5.01 µM [rising, single point].
In the case of CCOC(=O)c1[nH]c(C)c(/C(O)=C2\C(=O)C(=O)N(CCCn3ccnc3)C2c2ccncc2)c1C (stereo not given), the activity change, negative = inhibition is reported as “inactive”.
For O=C(Nc1cccs1)NC1CCCC1, the activity change, negative = inhibition was inconclusive: 0.175%.
With CCCCn1c(SCC(=O)O)nc2ccccc21 the activity change, negative = inhibition was “inactive”.
For COCCn1c(=O)c(C)nc2cnc(Oc3cccc(Cl)c3)nc21, the Potency was inconclusive: 12.6 µM [rising, single point].
For Cc1nn2c(-c3ccncc3)nnc2c2ccccc12, the Potency was inconclusive: 5.01 µM [rising, partial curve].
In the case of COC(=O)c1ccc(C(c2c(N)n(CC(C)C)c(=O)[nH]c2=O)N2CCN(c3ccccc3)CC2)cc1 (stereo not given), the activity change, negative = inhibition is reported as inconclusive: -11.5%.
In the case of COC(=O)c1ccc(CSc2nc(-c3ccccc3)cs2)o1, the activity change, negative = inhibition is reported as inconclusive: 23.5%.
For Cc1cc(C)c(O)c(-c2cc(C(=O)Nc3ccc(S(=O)(=O)N4CCOCC4)cc3)[nH]n2)c1, the Potency was inconclusive: 1.58 µM [rising, full curve].
For COC(=O)c1cc(OC)c(OC)cc1NC(=O)c1cccnc1, the Potency was inconclusive: 10 µM [rising, partial curve].
In the case of C=CCN(CC=C)c1nc2ccccc2nc1C(C#N)C(=O)OCCOC (stereo not given), the Potency is reported as active: 15.8 µM.
In the case of CC(C)C[C@@H](CC(=O)N[C@@H](CCC(=O)O)CC(=O)O)NC(=O)[C@@H]1CNCC[C@H]1NC(=O)C[C@H](CCCN)NC(=O)C[C@H](CO)NC(=O)[C@@H]1CCCC[C@H]1N, the activity change, negative = inhibition is reported as “inactive”.
With O=C(Oc1cccc(Br)c1)c1cccnc1 the activity change, negative = inhibition was inconclusive: 3.6%.
In the case of Cc1cccc2cc(C(c3nnnn3Cc3ccccc3)N3CCN(C)CC3)c(=O)[nH]c12 (stereo not given), the activity change, negative = inhibition is reported as “inactive”.
For COc1ccc(C(=O)N(Cc2ccco2)C(C(=O)NC2CCCC2)c2ccc(O)cc2)cc1OC (stereo not given), the activity change, negative = inhibition was “inactive”.
In the case of Cn1c(C(C#N)C(=O)c2sc3ccccc3c2Cl)nc2ccccc21 (stereo not given), the activity change, negative = inhibition is reported as “inactive”.
In the case of Cn1c(=O)c(-c2cc(F)cc(F)c2)nc2cnc(Oc3cccc(Cl)c3)nc21, the Potency is reported as active: 10 µM.
For Cc1ccsc1/C=N/n1cnc2sc(C)c(C)c2c1=O, the activity change, negative = inhibition was inconclusive: -5.56%.
For Fc1ccc(-c2nn3c(C4COc5ccccc5O4)nnc3s2)cc1 (stereo not given), the activity change, negative = inhibition was “inactive”.
In the case of Cc1noc(C)c1S(=O)(=O)Nc1ccc(C(=O)O)cc1, the activity change, negative = inhibition is reported as inconclusive: 0.545%.
In the case of CCOC(=O)NC(=O)CSc1nnnn1-c1ccc(C)cc1, the activity change, negative = inhibition is reported as inconclusive: -3.9%.
In the case of CSc1ccccc1NC(=O)c1onc(C)c1Cl, the activity change, negative = inhibition is reported as “inactive”.
For CC(NC(=O)c1cccnc1)C(c1cccs1)N1CCOCC1 (stereo not given), the activity change, negative = inhibition was inconclusive: -5.53%.
In the case of CC1=CC(C)C2C(=O)N(CCCN(C)C)C(=O)C2C1 (stereo not given), the activity change, negative = inhibition is reported as “inactive”.
In the case of CCCCn1cc(SCC(=O)O)c2ccccc21, the Potency is reported as inconclusive: 1.58 µM [falling, partial curve, poor fit].
With CCN(CC)C(=O)CSc1nc2cc3c(cc2c(=O)n1Cc1ccc2c(c1)OCO2)OCO3 the activity change, negative = inhibition was “inactive”.
With CCOc1ccc(NC(=O)CN2CCN(CC(=O)c3ccc(OCC)cc3)CC2)cc1 the activity change, negative = inhibition was inconclusive: -19%.
With COC(=O)c1ccc(NC(=O)CSc2nncn2C)cc1 the Potency was inconclusive: 3.16 µM [falling, single point].
With COc1ccc2c(CC(=O)OCC(=O)Nc3ccc4c(c3)OCO4)coc2c1 the Potency was inconclusive: 0.1 µM [falling, single point].
With Cc1ccnc2c1NC(=O)c1cccnc1N2C1CC1 the Potency was inconclusive: 20 µM [rising, single point].
With COC(=O)c1ccc(CSc2nc(C)nc3sc(C)c(C)c23)o1 the Potency was active: 0.794 µM.
For COCCNC(=O)CSc1nc2cc(OC)c(OC)cc2c(=O)n1Cc1ccco1, the Potency was inconclusive: 12.6 µM [rising, partial curve].
For CCc1cccc(NC(=O)CCS(=O)(=O)c2cccc3nonc23)c1, the activity change, negative = inhibition was inconclusive: -24.3%.
For Cc1cc(C)c(C#N)c(N2CCSCC2)n1, the activity change, negative = inhibition was inconclusive: 24%.
In the case of COc1cc(CC(=O)Nc2sccc2C(N)=O)cc(OC)c1OC, the Potency is reported as inconclusive: 10 µM [rising, partial curve].
In the case of COCCCNS(=O)(=O)c1ccccc1, the activity change, negative = inhibition is reported as inconclusive: 21.1% [at 7.6 µM].
For O=c1c(-c2cc(F)cc(F)c2)nc2cncnc2n1C1CC1, the activity change, negative = inhibition was inconclusive: 27.4%.
In the case of CC1CC(C)CN(C(=O)COc2ccc(-c3nnco3)cc2)C1 (stereo not given), the activity change, negative = inhibition is reported as inconclusive: 20.6%.
With COc1ccc(N2CCN(c3nc(=S)n(-c4ccccc4)c(C)c3C(C)=O)CC2)cc1 the activity change, negative = inhibition was “inactive”.
For CCN(CC)CCOc1ccc(Br)cc1, the activity change, negative = inhibition was “inactive”.
With COc1ccc(CCNC[C@H](O)c2ccc(O)cc2)cc1OC the activity change, negative = inhibition was inconclusive: -23.4%.
In the case of Cc1cc(NCCOCCO)n2ncc(-c3ccc(Cl)cc3)c2n1, the Potency is reported as active: 7.94 µM.
For CC(Sc1cccc(C(F)(F)F)c1)C(=O)NC(N)=O (stereo not given), the activity change, negative = inhibition was “inactive”.
With CCOC(=O)c1ccc(Nc2ccc(-c3ccc(OC)c(OC)c3)nn2)cc1 the Potency was inconclusive: 6.31 µM [rising, single point].
For CC(C)CCNC(=O)CCS(=O)(=O)c1cccc2nonc12, the activity change, negative = inhibition was inconclusive: -1.97%.
For O=C(CSc1nnc(COc2ccccc2)n1Cc1ccco1)c1ccc(F)cc1, the activity change, negative = inhibition was “inactive”.
For Cn1cccc1C(=O)N1CCC2(CCCN(C(=O)Nc3cccc(C#N)c3)C2)CC1, the activity change, negative = inhibition was “inactive”.
In the case of CC(C)=CCC/C(C)=C/COc1c2ccoc2cc2oc(=O)ccc12, the Potency is reported as inconclusive: 15.8 µM [rising, partial curve].
In the case of O=c1c(-c2ccc(F)cc2)nc2cnc(Oc3cccc(Cl)c3)nc2n1C[C@H]1CCCO1, the Potency is reported as inconclusive: 20 µM [rising, single point].
In the case of O=C(Nc1ccc2nc(C3CC3)n(Cc3ccc(F)cc3)c(=O)c2c1)c1ccco1, the Potency is reported as inconclusive: 0.126 µM [falling, full curve].
For O=c1nc2scc(-c3ccccc3)n2c2ccccc12, the activity change, negative = inhibition was inconclusive: 18.6%.
In the case of C[C@@H]1C(=O)O[C@H]2[C@@H](O)[C@@]34[C@H]5C[C@H](C(C)(C)C)[C@@]36[C@H](OC(=O)[C@@H]6O)O[C@@]4(C(=O)O5)[C@@]12O, the activity change, negative = inhibition is reported as inconclusive: -11.6%.
In the case of COc1cc(Cc2cnc(N)nc2N)cc(OC)c1OC, the activity change, negative = inhibition is reported as inconclusive: 19.2%.
For CC1Cc2ccccc2N1C(=O)CSc1nc2cc3c(cc2cc1C#N)OCO3 (stereo not given), the activity change, negative = inhibition was “inactive”.
With Nc1nnnn1/N=C/c1ccccc1C(F)(F)F the activity change, negative = inhibition was “inactive”.
For CCc1ccc(NC2CC(=O)N(c3ccc(OC)cc3OC)C2=O)cc1 (stereo not given), the activity change, negative = inhibition was inconclusive: 3.84%.
With Cc1ccc2cc3c(NC(=O)C(C)C)nn(C)c3nc2c1 the Potency was active: 15.8 µM.
In the case of CC(=O)N1CCC2(CC1)CCN(c1cccc(-c3ccccc3)c1)CC2, the activity change, negative = inhibition is reported as inconclusive: 13.7%.
With FC(F)(F)c1cnc2c(c1)Nc1ccccc1S2 the Potency was inconclusive: 1.58 µM [falling, full curve, poor fit].
In the case of CCC(=O)N1CC2(C)CN(C(=O)CC)CC(C)(C1)C2, the activity change, negative = inhibition is reported as “inactive”.
For COc1ccc(Cl)cc1NS(=O)(=O)c1cc(Cl)ccc1OC, the activity change, negative = inhibition was inconclusive: -20.3% [at 7.6 µM].
With COc1ccc(Nc2cc(C)nc3ncnn23)c(OC)c1 the activity change, negative = inhibition was “inactive”.
For CC1CCN(C(=O)N[C@@H](Cc2ccccc2)C(=O)O)CC1, the activity change, negative = inhibition was inconclusive: 1.81%.
In the case of CN1CCN(c2ncncc2-c2ccccc2C(F)(F)F)CC1, the activity change, negative = inhibition is reported as “inactive”.
For O=C(OCC1CC(c2ccccn2)=NO1)c1ccc(Br)cc1 (stereo not given), the Potency was inconclusive: 3.16 µM [falling, single point].
For CCc1ccc(CNc2ccc3c(c2)ncn3C)cc1, the activity change, negative = inhibition was inconclusive: 29.4%.
In the case of O=C(C1CCCN(S(=O)(=O)c2cccc3cccnc23)C1)N1CCc2ccccc21 (stereo not given), the activity change, negative = inhibition is reported as “inactive”.
In the case of CC1CC(C)CN(CCCNC(=O)C2CCCN(c3nnc(N4CCCC4=O)s3)C2)C1 (stereo not given), the activity change, negative = inhibition is reported as “inactive”.
With CCc1nc(Nc2ccncc2)c2oc3ccccc3c2n1 the activity change, negative = inhibition was inconclusive: 20.8%.
In the case of CCOC(=O)c1[nH]c(C)c(C(=O)OCc2c(C)noc2C)c1C, the Potency is reported as inconclusive: 10 µM [rising, partial curve].
In the case of CN(CCc1ccc(Cl)c(Cl)c1)CCN1CCCC1, the activity change, negative = inhibition is reported as “inactive”.
For O=C(NC1CCCCCC1)C1c2ccccc2C(=O)N1CCCN1CCOCC1 (stereo not given), the activity change, negative = inhibition was inconclusive: 21.1%.
In the case of COc1ccc(OC)c(C2C(C(C)=O)=C(O)C(=O)N2c2ccc(F)cc2)c1 (stereo not given), the Potency is reported as inconclusive: 0.0126 µM [falling, full curve, poor fit].
For CN1CCN(Cc2cc(=O)oc3ccc(Cl)cc23)CC1, the activity change, negative = inhibition was “inactive”.
With CCOc1cc2[nH]c(=O)n(CC3CCC(C(=O)NCCC(C)C)CC3)c(=O)c2cc1OCC (stereo not given) the activity change, negative = inhibition was inconclusive: -15.7%.
For CCSC(=Nc1ccccc1)C1=C(O)COC1=O, the activity change, negative = inhibition was inconclusive: -7.58%.
For COc1ccc(S(=O)(=O)N2CCN(c3ccccn3)CC2)cc1OC, the activity change, negative = inhibition was “inactive”.
For Cn1c(=O)[nH]c(=O)c2c1nc(CN(Cc1ccccc1)Cc1ccccc1)n2CCN1CCOCC1, the activity change, negative = inhibition was inconclusive: -10.5%.
For c1coc(-c2ncc[nH]2)c1, the activity change, negative = inhibition was “inactive”.
In the case of CCOc1ccccc1N(CC)C(=O)Cn1ncc2c(=O)oc3ccccc3c21, the Potency is reported as inconclusive: 7.94 µM [rising, partial curve].
In the case of CCC(=O)N1CCN(C(C)=O)C1c1ccccc1 (stereo not given), the activity change, negative = inhibition is reported as “inactive”.
